The full ranking holds about 33,000 sequences; the median of “E-score (-0.5 to 0.5)” is about -0.053, and the highest 2% start at about 0.37. Some of the results follow.
What follows are sequences tested against Hap1 (UniProt P0CE41) (assay: PBM E-score (8-mer binding enrichment) (E-score (-0.5 to 0.5)); higher = stronger / more preferred TF binding; most listed sequences are background and not binding sites). Details: protein concentration: 200 nM; construct: GST-DNA-binding domain.
How it was run: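 PURExpress in vitro transcription/translation supplied GST-tagged yeast transcription factors, either full-length or DNA-binding domain. Applied at about 100-200 nM to universal all-10-mer Agilent arrays double-stranded by primer extension, the bound protein was detected with fluorescent anti-GST. E-scores, modified Wilcoxon-Mann-Whitney statistics, were given by the Universal PBM Analysis Suite to ungapped eight-base words pooled with their reverse complements after masliner normalisation.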

Sequence of UniProt P0CE41 (P0CE41 whole entry, the tested form may be a part): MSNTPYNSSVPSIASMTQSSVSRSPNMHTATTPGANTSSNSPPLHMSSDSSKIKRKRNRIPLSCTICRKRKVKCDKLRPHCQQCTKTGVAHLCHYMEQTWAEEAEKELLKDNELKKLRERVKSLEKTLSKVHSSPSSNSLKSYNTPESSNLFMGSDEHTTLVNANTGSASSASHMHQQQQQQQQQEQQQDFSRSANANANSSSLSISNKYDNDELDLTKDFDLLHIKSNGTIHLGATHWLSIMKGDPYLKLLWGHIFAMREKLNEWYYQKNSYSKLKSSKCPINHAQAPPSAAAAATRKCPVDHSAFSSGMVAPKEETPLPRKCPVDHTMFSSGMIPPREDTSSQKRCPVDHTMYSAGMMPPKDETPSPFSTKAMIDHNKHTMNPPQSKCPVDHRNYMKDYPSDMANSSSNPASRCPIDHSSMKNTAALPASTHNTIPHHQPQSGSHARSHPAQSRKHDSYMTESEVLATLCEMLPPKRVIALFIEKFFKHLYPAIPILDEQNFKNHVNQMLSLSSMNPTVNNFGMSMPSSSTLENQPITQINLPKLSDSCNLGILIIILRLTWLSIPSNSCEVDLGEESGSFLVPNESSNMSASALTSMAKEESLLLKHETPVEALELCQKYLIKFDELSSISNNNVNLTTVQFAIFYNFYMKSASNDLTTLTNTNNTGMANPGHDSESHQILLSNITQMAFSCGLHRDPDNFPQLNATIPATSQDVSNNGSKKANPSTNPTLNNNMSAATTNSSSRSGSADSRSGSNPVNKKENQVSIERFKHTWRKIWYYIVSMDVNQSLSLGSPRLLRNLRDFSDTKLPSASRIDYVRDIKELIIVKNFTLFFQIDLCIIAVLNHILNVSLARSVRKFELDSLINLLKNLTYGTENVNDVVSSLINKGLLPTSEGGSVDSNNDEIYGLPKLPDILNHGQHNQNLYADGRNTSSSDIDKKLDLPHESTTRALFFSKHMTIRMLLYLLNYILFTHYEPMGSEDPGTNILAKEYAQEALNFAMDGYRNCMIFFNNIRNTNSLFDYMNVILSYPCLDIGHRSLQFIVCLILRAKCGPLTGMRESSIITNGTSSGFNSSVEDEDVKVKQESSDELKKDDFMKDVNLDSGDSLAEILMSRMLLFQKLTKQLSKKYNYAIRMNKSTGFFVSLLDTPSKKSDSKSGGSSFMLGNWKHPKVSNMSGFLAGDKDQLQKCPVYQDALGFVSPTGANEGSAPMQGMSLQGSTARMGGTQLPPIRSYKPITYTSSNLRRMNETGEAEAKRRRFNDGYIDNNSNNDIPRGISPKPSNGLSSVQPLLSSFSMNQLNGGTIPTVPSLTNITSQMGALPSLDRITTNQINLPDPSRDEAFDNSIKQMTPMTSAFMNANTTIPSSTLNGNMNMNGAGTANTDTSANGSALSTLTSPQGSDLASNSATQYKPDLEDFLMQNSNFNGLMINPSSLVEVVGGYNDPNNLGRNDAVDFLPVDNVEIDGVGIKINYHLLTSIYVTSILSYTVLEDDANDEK

Row | Sequence | PBM E-score
1 | AGAGAGAG | -0.302
2 | CCGTTGGA | 0.0227
3 | ATAACCCA | -0.0514
4 | GATTGTCA | -0.0455
5 | TCCGACGA | 0.324
6 | CATTGCAC | -0.133
7 | CAATTCCC | 0.0855
8 | TGCGTCAA | -0.0196
9 | GTACAAGA | -0.151
10 | AGCTGTTA | -0.0992
11 | AGAACCCT | -0.114
12 | CTCCTAGA | -0.252
13 | CAAATAGA | 0.0286
14 | ATTGAGCA | -0.201
15 | AAGCTGTA | -0.0893
16 | AAAATGAC | 0.00651
17 | ACCCTCGA | -0.127
18 | ACGCATAC | -0.00662
19 | ACCGTCGC | 0.193
20 | ACATGACT | -0.29
21 | CGCAGTCA | -0.0499
22 | CTATTGCA | -0.11
23 | ACCTGTGG | -0.18
24 | ACGGCTGC | -0.00727
25 | CTCAGGAG | -0.24

Row | Sequence | PBM E-score
26 | CAGACTAG | -0.378
27 | CCATCGAA | -0.164
28 | CACCAGTG | -0.243
29 | CGCTGGAC | -0.0346
30 | AGTTTCAC | -0.236
31 | ATAATCGA | -0.0328
32 | CAGTTGGG | -0.266
33 | AGAGTGGG | -0.0463
34 | ACTTCCGC | 0.249
35 | CAGTTCCC | 0.11
36 | AGGGAAGA | -0.335
37 | AGCCGTCG | 0.0952
38 | AAATACTG | -0.0576
39 | ACTGCGCG | 0.106
40 | CACGGAGG | 0.214
41 | CATACGGG | 0.00011
42 | CAAGTATA | -0.235
43 | ATGGCAGC | -0.0667
44 | AGGAAAAC | -0.054
45 | CTCACTGC | -0.166
46 | GACTATTA | -0.129
47 | TTTAAAAA | -0.052
48 | CATGTAGG | -0.0257
49 | ATGGATAA | -0.0672
50 | AGGGAATC | -0.147

Row | Sequence | PBM E-score
51 | ATAACGAT | -0.0501
52 | CGTACCAA | -0.0973
53 | CTCTGTGA | -0.288
54 | ACCACGAA | -0.157
55 | ACGTGATG | -0.267
56 | AAACAGCG | -0.0524
57 | GTGGACGA | -0.0496
58 | AGAGCCGA | 0.306
59 | AGCTTTCC | 0.0924
60 | ATCCGAAC | 0.355
61 | AGGTGAGA | -0.187
62 | CTAGTACA | -0.117
63 | GGCTATTA | 0.117
64 | CGCGGTGA | 0.0447
65 | GAAGCAAC | -0.0357
66 | ACCCTTAT | -0.0243
67 | CCCCCGGA | 0.305
68 | AATCGCGC | 0.135
69 | AAAATTCG | 0.149
70 | CCATACCC | 0.108
71 | CGGAGACA | 0.366
72 | CTGTGGGC | -0.225
73 | GGCACCGA | 0.094
74 | CTGGGAGC | -0.0941
75 | AGGAGGGC | -0.276

Row | Sequence | PBM E-score
76 | CCATTCCA | -0.0844
77 | AACGCGTC | 0.0721
78 | AAAACATC | -0.127
79 | CAACAGAG | -0.0978
80 | GCGAAATA | 0.083
81 | AACGCGTT | 0.0902
82 | GTTCCCCA | -0.0867
83 | TAGGAACA | -0.231
84 | GATGTGAA | -0.0999
85 | GATATACC | 0.285
86 | AAACTTCC | 0.0753
87 | GAACTTCC | 0.0685
88 | AGATATCA | -0.129
89 | TGGTATAA | -0.0715
90 | CATAACGC | 0.0608
91 | CATAGCGC | 0.0635
92 | AAACGAAA | -0.046
93 | AAGCTCAG | -0.237
94 | TAAGCTCA | -0.00629
95 | CGTTTGAG | -0.0797
96 | CCACACGA | -0.254
97 | CAAATTCA | -0.061
98 | AATGTCCA | -0.104
99 | GTTTGGGA | -0.0806
100 | AACAAGCT | -0.0404

Row | Sequence | PBM E-score
101 | CCACCCGC | 0.217
102 | ACACCACT | -0.107
103 | GTAATTGA | 0.00674
104 | GATTTACC | 0.313
105 | CTAGCTAC | -0.257
106 | ATGGCAAT | -0.0398
107 | GACCGGGA | 0.329
108 | ATACCTAG | -0.084
109 | AAGAGGAG | -0.103
110 | AGTGTGTA | -0.226
111 | GAGTTATC | 0.278
112 | CACCTTTA | -0.116
113 | GATTCAAA | -0.158
114 | CATCCCAC | -0.052
115 | GATAGTGC | -0.0408
116 | ACTAATGG | 0.0055
117 | CGGCGCCA | 0.246
118 | CCTGACAC | -0.16
119 | ACGCCCCG | 0.193
120 | CAGAGCCG | 0.108
121 | ACCGCATC | 0.173
122 | CGCGATTC | 0.2
123 | AGATCACC | 0.00153
124 | ACACTCGT | -0.275
125 | CTCATCTA | -0.061

Row | Sequence | PBM E-score
126 | TACCGGGA | 0.387
127 | AGTACAGA | -0.047
128 | AACATTAA | -0.0375
129 | CGAATCAG | -0.212
130 | AGCTCACC | 0.043
131 | AGTCCGAG | 0.428
132 | ACAACCAT | -0.0258
133 | AGCACTGG | -0.267
134 | CCACTGAG | -0.235
135 | GATCCAAA | 0.0217
136 | TACTACTA | 0.0814
137 | GCTTCATA | -0.0731
138 | AAGCAAAA | -0.142
139 | CACACGGG | 0.0767
140 | CTGTGGGA | -0.306
141 | TAGAGAAA | -0.125
142 | GCGATAGC | 0.00865
143 | CTAATTTC | 0.0933
144 | CAAATACA | -0.149
145 | CAAACAGG | -0.203
146 | CAGCGGGC | 0.123
147 | AATACAAG | -0.0861
148 | CAGCTCCA | -0.231
149 | CCGCCCCC | -0.0463
150 | CTCGAAAC | -0.113

Row | Sequence | PBM E-score
151 | CCTGCTCC | 0.14
152 | AATCATGA | -0.133
153 | TCAAGACA | -0.154
154 | AGTTTGGC | -0.0614
155 | AATAAAAG | -0.0131
156 | CCAAGTCA | -0.111
157 | AAAAACTT | -0.0448
158 | CAGATTCG | 0.138
159 | CCAGACCC | -0.0192
160 | ACCAGATG | -0.266
161 | CCGAGGGA | 0.264
162 | CGGGCCCC | 0.293
163 | GGTGACAC | 0.0248
164 | AGGCGCCA | 0.0364
165 | GGGACTCA | -0.148
166 | TCGCACGA | -0.0928
167 | ATTTCCTC | 0.127
168 | CATAGCGG | 0.3
169 | AACTCGTA | -0.14
170 | CGCTCTGC | -0.0103
171 | CGAGAAAG | 0.156
172 | AAGTTTGC | -0.0358
